This is one part of the list. At the low end of the ranking the order means little.
What follows are sequences tested against T1, GST-Rok-C97-191 (UniProt O34857) (assay: protein binding microarray). Conditions: Rok is a gene silencer of Bacillus subtilis; high values mean tight binding; most listed sequences are background and not binding sites; double strand, one strand shown.
T1 sequence: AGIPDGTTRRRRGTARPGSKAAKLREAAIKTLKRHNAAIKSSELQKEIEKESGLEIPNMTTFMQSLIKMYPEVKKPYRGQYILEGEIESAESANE
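Also: rank score from −0.5 (least bound) to 0.5 (best bound).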

Sequence | binding signal [E-score]
ACAATGAC | -0.102
CATTAATA | 0.186
GCACCAGC | -0.0944
CACTAGGA | 0.129
AGGCCGAG | -0.362
GAGACGAC | -0.273
CCGTCGTA | -0.0115
GAGAATCA | 0.109
CCATTAGG | -0.236
CGTGCCAC | -0.181
TCGATACA | 0.126
ATACCGAG | 0.045
CCCCGAGG | -0.203
CGCGAACA | -0.00689
CTACTACC | 0.363
CAGCTCGA | -0.0924
AGTTATAA | 0.296
CAATACAC | 0.161
AGAAGGGG | -0.287
ACGCACCT | -0.133
AGCACCCG | -0.304
AAATGTGG | 0.124
TCAAGAGA | 0.0592
AAGAGCTC | -0.153
GACTTGGC | -0.0709

Sequence | binding signal [E-score]
AGTACTAT | 0.367
ATCTTTAA | 0.045
CAGTAAAG | -0.0701
CTTGATTA | -0.0437
CATTACAG | -0.00725
CATGGAGA | 0.0656
CTAAATGC | -0.0315
CCGGATAA | 0.0427
AGTCGGTC | -0.135
ACCGCTGC | -0.32
CTGAAACC | 0.000604
CGCCGTCC | -0.134
AGTTTAGA | 0.184
CGAGACTA | 0.186
GCTACAAC | 0.131
GCCTGTAA | 0.00953
CACAAGTA | 0.205
TCACCTGA | 0.0254
TACGCGTA | 0.238
CTGCTCAC | -0.147
ACTCCCAC | -0.15
ACTATCGG | 0.065
CAAACCCC | -0.303
CTAATTGA | 0.15
ATTCGACG | 0.193

Sequence | binding signal [E-score]
CAGAACAG | -0.048
ACATTCGG | 0.0217
GCTGACTA | 0.189
GAAGGCGC | -0.208
CGTTGCCC | -0.248
ATAAGCTA | 0.261
CTCTTAAG | -0.23
CATTTGGG | -0.0148
GACATACC | 0.0094
CTTTAGTC | -0.102
AGAAATAA | 0.316
AGTGATGC | -0.0675
GGCACGTA | -0.00215
CAGCAAGG | -0.207
ACTTGTCT | -0.0197
GCGGGTAC | -0.172
AATCTTTG | 0.00627
TGCGCACA | -8.28e-05
CGGACGAC | -0.141
AGCTGGCC | -0.0688
ATGTGGCA | -0.105
GCGTGGAC | -0.32
CAAGCTCG | -0.179
GAACCCTA | 0.0074
CCGACCAA | -0.101

Sequence | binding signal [E-score]
CCTTAACG | -0.152
GGGGATCA | -0.173
CTTTTGGC | -0.159
AACGAGAC | 0.0597
AGAAGCCA | -0.0931
CAAAAGAA | -0.13
GATTGATA | 0.233
ACGCGGAG | -0.0772
CGCATTGC | -0.0256
CGTACTCA | -0.00471
CTCGTCGA | -0.125
AGAGCCTG | -0.0987
AGTTGCGG | -0.0107
CCTGTCAG | -0.131
CGTACAGC | -0.156
ACTGTTCG | 0.0167
CCCTGCCA | -0.324
ACATGGGA | 0.0667
CAACCGTG | -0.0369
GCGGCATA | -0.0162
AAGATGCA | -0.109
AGGGGGGC | -0.424
ATTGTATG | 0.217
CGTATTTC | 0.115
AACCTAGC | -0.107

Sequence | binding signal [E-score]
CAGCATAA | 0.0581
ACAGCCCT | -0.0912
ATGCGGAG | -0.314
ACAAAGGC | -0.173
ACCTGTCG | -0.0938
CAGGGCCA | -0.145
CGCCGAAA | -0.0722
ATACCAGC | 0.165
ACCAAGCG | -0.238
CTTAGTTC | 0.142
GAGATGGC | -0.172
GCCCCGCA | -0.21
AACAATTG | 0.168
ATAGTTAC | 0.254
GTTCGAAA | -0.0791
GCAACTGA | -0.153
CGGAAAAG | 0.000626
TAGGATCA | 0.0651
CTTAAGAC | -0.104
CCCCAGGC | -0.216
TTATAAAA | 0.218
CGGCAACG | -0.127
TGTTAGAA | 0.14
GCAGTGGA | -0.265
CTTGCCGC | -0.0699

Sequence | binding signal [E-score]
CTCCCGGA | -0.187
TGAAGCAA | -0.158
TAGAAGGA | 0.153
CAAATATC | 0.231
ACGACGGA | -0.00652
CGAGGCGA | -0.0794
AACATGAA | 0.091
TAAGTCCA | 0.0886
TATTAATA | 0.352
CCTAGAAA | 0.16
CTTTAAAA | 0.0338
CCGGTTAG | -0.0479
GTAACACA | 0.138
TAGGGATA | 0.114
ACGGCCTC | -0.152
CCCGACGC | -0.213
GTTCAATA | 0.198
GTCCTGCA | -0.236
GGGGCGAA | -0.168
CTAATAAG | 0.127
TGGGCTAA | -0.0359
AAAACGCA | -0.035
AAGATCCC | 0.148
CGAATCCC | -0.203
AGCGGGAG | -0.145

Sequence | binding signal [E-score]
TGATAACA | 0.072
GTTCTACA | 0.247
CGGTCGGA | -0.214
CAACTGTC | -0.0699
TCACATCA | 0.134
TCTTGACA | 0.0211
GTGAAACA | -0.0756
CCAGGGCA | -0.237
AGAGGTGA | -0.0938
CGTGCACC | -0.199
GTAGGGCA | -0.0192
ATTAGGCC | 0.0349
CGCTTGAC | -0.197
ATGATTGA | 0.135
AATCCTTG | 0.0297
TCAATGGA | -0.128
CAGAGCCG | -0.393
CATGAGCC | -0.173
ATCGACCC | -0.0066
CGGGAGCA | -0.268
CTATCATA | 0.212
TCGGCAGA | -0.13
CAGCCTTA | -0.151
CTGTTATC | -0.15
CACTGTAG | -0.0439

Sequence | binding signal [E-score]
CTTTGTTC | -0.112
ACGGTGGC | -0.177
AGAGGCGA | -0.122
AAGTGGTC | -0.168
CGTTAAAA | 0.104
ATTTTGTC | 0.145
CAGGCTCG | -0.237
ACATTCAG | 0.0804
GTCCTGGA | -0.121
AACAGCTA | 0.212
ACATGGCA | 0.0362
ATGCACAT | 0.141
CTTGCGTC | -0.0557
ACCCAGGG | -0.112
AAGGAAGT | -0.225
CACGGCTG | -0.248
CCCTTAAC | -0.11
CTTTACTC | -0.199
CAGGCCAG | -0.2
CCACTAAG | 0.00608
GCCAGGCC | -0.209
GGAGCTCC | 0.0246
CAGCAGTA | -0.0875
ATTGTGGG | 0.052
CTGACGGA | -0.271

Sequence | binding signal [E-score]
AATTAGAG | 0.17
TATGCCCA | -0.134
CATGCTCC | -0.102
TAATTGCA | 0.133
CTTCACCC | -0.0668
GGGGGATA | -0.134
ATGGGTAC | 0.0396
AAGTGAAT | 0.0373
CCCACTCC | -0.161
GCTGAGAA | -0.0968
CAAGGCCA | -0.3
TGCCAACA | 0.0271
AATACTCA | 0.0071
ATTGGGGG | -0.194
ATAAGCGG | -0.088
AGACACGG | 0.126
CCAATATA | 0.323
CGATCGAC | -0.0612
ATGCATCG | -0.0373

Reference: publication PMC6212790
